Consider 9 molecules from patent US20230340058A1.

B1: SEQ ID NO: 54 (Fc fusion)
chain: [human IgG1 Fc with changes skipped]GGSDSWKEEVIKLCGRELVRAQIAICGKSTGGGEGGGEGGGEGGGQLYSALANKCCHVGCTKRSLARFC
B2: SEQ ID NO: 59 (Fc fusion)
chain: [human IgG1 Fc with changes skipped]GGSDSWQEEVIKLCGRELVRAQIAICGKSTGGGEGGGEGGGEGGGQLYSALANKCCHVGCTKRSLARFC
B3: SEQ ID NO: 58 (Fc fusion)
chain: [human IgG1 Fc with changes skipped]GGSDSWMEEVIKLCGRELVRAQIAICGKSTGGGEGGGEGGGEGGGQLYSALANKCCHVGCTKRSLARFC
B4: Prior fusion (SEQ ID NO: 224) (Fc fusion)
chain: [human IgG1 Fc skipped]GGGGSGGGGSGGGGSQLYSALANKCCHVGCTKRSLARFCGGGGSGGGGSGGGGSSWMEEVIKLCGRELVRAQIAICGMSTWS
B5: SEQ ID NO: 55 (Fc fusion)
chain: [human IgG1 Fc with changes skipped]GGSDSWMEEVIKLCGRELVRAQIAICGKSTGGGEGGGEGGGEGRQLYSALANKCCHVGCTKRSLARFC
B6: SEQ ID NO: 56 (Fc fusion)
chain: [human IgG1 Fc with changes skipped]GGSDSWQEEVIKLCGRELVRAQIAICGKSTGGGEGGGEGGGEGRQLYSALANKCCHVGCTKRSLARFC
B7: SEQ ID NO: 53 (Fc fusion)
chain: [human IgG1 Fc with changes skipped]GGSDSWKEEVIKLCGRELVRAQIAICGKSTGGGEGGGEGGGEGRQLYSALANKCCHVGCTKRSLARFC
B8: SEQ ID NO: 191 (Fc fusion)
chain: [human IgG1 Fc with changes skipped]GGSDSWKEEVIKLCGRELVRAQIAICGKSTASDAAGANANAGARQLYSALANKCCHVGCTKRSLAQFC
B9: SEQ ID NO: 192 (Fc fusion)
chain: [human IgG1 Fc with changes skipped]GGSDSWKEEVIKLCGRELVRAQIAICGKSTASDAAGANANAGARQLYSALANKCCHVGCTKRSLAEFC

Sequence of human RXFP1, full-length (human), Q9HBX9 (Q9HBX9 whole entry): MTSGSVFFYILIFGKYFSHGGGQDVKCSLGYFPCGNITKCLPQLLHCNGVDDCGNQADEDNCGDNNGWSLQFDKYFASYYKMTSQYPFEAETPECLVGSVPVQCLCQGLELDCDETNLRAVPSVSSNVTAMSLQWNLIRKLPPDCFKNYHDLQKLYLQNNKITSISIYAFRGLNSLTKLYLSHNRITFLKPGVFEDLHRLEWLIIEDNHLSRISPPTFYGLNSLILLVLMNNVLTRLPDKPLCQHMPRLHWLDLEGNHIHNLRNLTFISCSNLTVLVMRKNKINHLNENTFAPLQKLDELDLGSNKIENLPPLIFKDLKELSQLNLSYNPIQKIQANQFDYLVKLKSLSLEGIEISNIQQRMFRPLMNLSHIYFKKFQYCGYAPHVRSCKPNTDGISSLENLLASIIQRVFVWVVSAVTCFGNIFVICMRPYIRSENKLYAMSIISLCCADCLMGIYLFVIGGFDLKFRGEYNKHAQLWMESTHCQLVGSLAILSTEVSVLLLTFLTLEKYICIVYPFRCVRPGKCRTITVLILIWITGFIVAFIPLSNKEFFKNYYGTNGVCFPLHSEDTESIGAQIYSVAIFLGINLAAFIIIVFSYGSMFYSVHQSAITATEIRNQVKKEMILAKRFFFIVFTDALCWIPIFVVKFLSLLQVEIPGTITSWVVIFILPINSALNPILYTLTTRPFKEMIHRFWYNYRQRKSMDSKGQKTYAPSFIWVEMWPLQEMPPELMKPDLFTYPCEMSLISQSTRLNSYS

This test addresses human RXFP1, full-length (human), Q9HBX9. In words: cell-based or functional assay.
B1 came in with an EC50 in nM (cAMP Response in RXFP1 Transfected HEK293 Cells) of 7.87 nM and a pEC50 (cAMP Response in RXFP1 Transfected HEK293 Cells) of 8.1.
For B2, in that order: 17.7 nM and 7.75.
B3 came in with an EC50 in nM (cAMP Response in RXFP1 Transfected HEK293 Cells) of 14.7 nM and a pEC50 (cAMP Response in RXFP1 Transfected HEK293 Cells) of 7.83.
In turn, B4 returned a Potency Assay EC50 (nM), transient hRXFP1 cAMP assay of 0.3 nM.
Take B5: the EC50 in nM (cAMP Response in RXFP1 Transfected HEK293 Cells) came out at 2.41 nM and the pEC50 (cAMP Response in RXFP1 Transfected HEK293 Cells) was found to be 8.62.
For B6, in that order: 1.9 nM and 8.72.
For B7, in that order: 2.17 nM and 8.66.
For B8, the EC50 in nM (cAMP Response in RXFP1 Transfected HEK293 Cells) was found to be 0.42 nM and the pEC50 (cAMP Response in RXFP1 Transfected HEK293 Cells) is 9.37.
Regarding B9, the EC50 in nM (cAMP Response in RXFP1 Transfected HEK293 Cells) is 1.46 nM and the pEC50 (cAMP Response in RXFP1 Transfected HEK293 Cells) came out at 8.84.
